Measurements as given in patent publication US12226427B2, “Treatment for gene reactivation” (YISSUM RESEARCH DEVELOPMENT COMPANY OF THE HEBREW …, priority 2018, dated 2025).

Tests used:
iPSCs = experiment: Toxicity of treatment in iPSCs
FXS-NPCs = experiment: Viability of FXS-NPCs following treatment
FMRP = FMRP expression screening (immunostaining imaging assay, 96-well) in FXS-iPSCs; type: cell-based, human; settings: 2 μM and 20 μM, 72 hours, FXS-iPSCs A #52

| Compound | Dose dependence of FMR1 reactivation (FMR1; FXS-NPCs, 96-hour treatment, different concentrations) | FMR1 mRNA, percent of normal cells (FMR1; FXS-NPCs, following 6 days of treatment (5 μM)) [%] | FMR1 mRNA levels relative to isogenic edited-FXS cell line (FMR1; FXS-iPSC-derived NPCs, 5-azadC treatment) | Toxicity in iPSCs (iPSCs) | Changes in viability of FXS-NPCs (FXS-NPCs) | FMRP signal in epigenetic library screen (FMRP) |
| --- | --- | --- | --- | --- | --- | --- |
| Nc1ncn([C@H]2C[C@H](O)[C@@H](CO)O2)c(=O)n1 [5-azadC, 5-aza-2-deoxycytidine] | dose dependent manner | 40 | approximately 40% | significant toxicity | did not show any changes in viability |  |
| CCCc1cc(C)[nH]c(=O)c1CNC(=O)c1cc(-c2ccc(N3CCN(C(C)C)CC3)nc2)cc2c1cnn2C(C)C [UNC1999] |  |  |  |  |  | no positive effect on FMRP reactivation |
